Our source for the z-score values is PubChem BioAssay AID488969 (Vanderbilt High Throughput Screening Facility, 2010).

The full ranking holds about 110,000 compounds; the median of “z-score” is about -0.1, and the highest 2% start at about 2. This is one part of the list. The source made the active and inactive calls.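 The calls were made as follows: active = z-score in the third read window above 3 or below -3; inactive = the rest.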

The target in the test is Metabotropic glutamate receptor 8 (Rattus norvegicus) (UniProt P70579). Put plainly: mGluR8 Gi/Go-coupled signaling modulation – cell-based, rat, thallium flux, HTS, primary screen (AID 488969). To be noted: HEK293 rat mGluR8, GIRK (G protein-gated inwardly rectifying potassium channel) thallium flux, FluoZin2; at 10 µM; stronger effect = higher value; submaximal glutamate (EC20) added with thallium.
Sequence of UniProt P70579 (P70579 whole entry, looked up): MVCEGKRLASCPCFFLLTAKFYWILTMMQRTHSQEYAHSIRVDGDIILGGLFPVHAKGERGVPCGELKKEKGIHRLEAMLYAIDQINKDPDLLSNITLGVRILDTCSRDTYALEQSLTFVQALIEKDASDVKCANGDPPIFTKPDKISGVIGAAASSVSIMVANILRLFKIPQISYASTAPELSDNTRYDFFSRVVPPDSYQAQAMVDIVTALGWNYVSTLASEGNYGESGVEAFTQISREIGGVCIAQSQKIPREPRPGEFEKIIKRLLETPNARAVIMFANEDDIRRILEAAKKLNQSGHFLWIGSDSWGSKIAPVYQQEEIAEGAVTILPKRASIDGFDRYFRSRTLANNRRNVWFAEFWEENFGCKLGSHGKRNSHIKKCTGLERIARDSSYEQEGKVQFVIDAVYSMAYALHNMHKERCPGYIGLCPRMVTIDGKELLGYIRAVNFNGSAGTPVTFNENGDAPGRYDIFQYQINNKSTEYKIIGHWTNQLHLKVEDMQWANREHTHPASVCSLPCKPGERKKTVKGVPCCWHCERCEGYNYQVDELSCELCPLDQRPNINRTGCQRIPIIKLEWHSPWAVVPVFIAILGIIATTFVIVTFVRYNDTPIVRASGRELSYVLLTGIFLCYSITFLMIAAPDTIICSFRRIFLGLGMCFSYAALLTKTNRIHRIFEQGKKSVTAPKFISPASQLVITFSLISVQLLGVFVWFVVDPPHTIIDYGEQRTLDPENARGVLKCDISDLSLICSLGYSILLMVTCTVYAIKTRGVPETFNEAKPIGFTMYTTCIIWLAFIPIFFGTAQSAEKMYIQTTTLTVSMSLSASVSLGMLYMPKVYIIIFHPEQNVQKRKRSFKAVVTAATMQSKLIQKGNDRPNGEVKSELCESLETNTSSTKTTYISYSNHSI
Turning to `CC(C)CCNC(=O)C1CCCCN1S(=O)(=O)c1ccc(F)cc1` (stereo not drawn), the z-score was -0.206.

For `C=CCNC(=O)/C(=C/c1ccco1)NC(=O)c1ccc(Br)o1`, the z-score is -0.238. Regarding `Cc1cc(C(=O)N/N=C/c2cccc(Cl)c2Cl)no1`, the z-score was -0.0874. The same measure for `Nc1ccc(C(=O)OCC(=O)N2CCc3ccccc3C2)cc1[N+](=O)[O-]`: -0.12.

Take `O=C(c1cc(-c2ccccc2)on1)N1CCN(Cc2ccc3c(c2)OCO3)CC1`: the z-score was -0.249. `Cc1onc(-c2ccccc2Cl)c1C(=O)N(C)C1CCCCC1` showed a z-score of -1.65. In the case of `CCc1nnc(NC(=O)c2ccc(-c3ccc(Cl)cc3)o2)s1`, the z-score is -0.00338. `N#Cc1cc(N)c(Nc2ccccc2)cc1C#N`: the z-score was -1.57. The same measure for `Cc1nn(C(=O)c2ccc3c(c2)OCO3)c(N)c1-c1ccccc1`: 0.808; for `Cc1cccc(NC(=S)N2CCC(c3nc4ccccc4s3)CC2)c1`: -0.153. The result for `O=C(CSc1nnc(Cc2cc(=O)[nH]c(=O)[nH]2)n1-c1ccccc1)NCC1CCCO1` (stereo not drawn) reads 0.18. Compound `CC(C)CCn1cnc2c1c(=O)n(C)c(=O)n2C` came in with a z-score of 0.28.

`C/C(N)=C(/C#N)C(=O)CSc1nnc(COc2ccccc2Cl)o1` came in with a z-score of 0.832.

Turning to `CC1Cc2cc(-c3csc(NC(=O)Cc4ccccc4)n3)ccc2N1S(C)(=O)=O` (stereo not drawn), the z-score was -0.48. On to `Fc1ccc(NC(=S)N2CCCC2)cc1Cl`, for which the z-score is -0.26. As for `O=c1[nH]c(NCCO)nc2c1C1(CCCCC1)Cc1ccccc1-2`, the z-score was determined as 0.942. As to `Cc1ccc(-c2csc(NC(=O)c3cccc(N4C(=O)CCC4=O)c3)n2)o1`, the z-score was -0.22.

`C/C(CC(=O)NCc1ccccc1)=N\NC(=O)c1cnccn1` displayed a z-score of -0.215. Consider `CCC(C)NC(=O)N[C@@H](Cc1ccccc1)C(=O)O` (stereo partly drawn), for which the z-score was -0.394.

For the compound `CCOC(=O)CSc1nnc(Cc2ccc(OC)cc2)n1-c1ccccc1`, the z-score stood at 0.371. Compound `COc1ccc(/C=N/NC(=O)CCc2c(C)n[nH]c2C)cc1OC` had a z-score of -0.0565. The same measure for `Cc1nn(C)c(C)c1NC(=O)CSc1nc(C2CC2)nc2c1cnn2-c1ccccc1`: 0.634; for `Cc1nnc(NC(=O)/C=C/c2ccco2)s1`: -0.0918; for `Cc1ccc(-c2n[nH]c(=S)n2/N=C\c2ccco2)cc1`: -0.16. For the compound `O=C(Cc1cccs1)Nc1nc2c(s1)CCCC2`, the z-score is -0.592. Take `COc1ccccc1OCCC(=O)OCC(=O)Nc1ncc(Cl)cc1Cl`: the z-score came out at 0.779.

As to `Cc1ccc(CN2C(=O)CCC2C(=O)NC2CCCC2)cc1` (stereo not drawn), the z-score is -0.0172. The compound `CCc1cc(C(=O)N=Nc2c(O)[nH]c3c(Br)cc(Br)cc23)c2ccccc2n1` displayed a z-score of -0.189. As for `Cc1ccc(C(=O)Nc2cc(Cl)ccc2Oc2ccccc2)cc1[N+](=O)[O-]`, the z-score was -0.324.

`O=C(CN1C(=O)CCS(=O)(=O)c2ccccc21)NCc1ccc(F)cc1`: the z-score worked out at 0.806. As to `CCOc1ccc(/C(O)=C2/C(=O)C(=O)N(Cc3cccnc3)C2c2ccc(N(C)C)cc2)c(C)c1` (stereo not drawn), the z-score was -0.508. Compound `C=CCN(C#N)c1nc(OC)nc(N2CCCC2)n1` gave a z-score of -0.561. The compound `Nc1nnc(-c2ccccc2)c(-c2ccccc2)n1` registered a z-score of -0.237. The result for `Cc1cccc(C)c1OCc1n[nH]c(=S)o1` reads -0.0164. The same measure for `N/C(Cc1cccc2ccccc12)=N\OC(=O)c1cccs1`: -0.626; for `COc1ccc(CC(=O)c2cc(OC)c(OC)cc2CC(=O)O)cc1OC`: -0.579.

Compound `O=C(CN1CCOCC1)Nc1ncc(Cc2cccc(Cl)c2)s1` came in with a z-score of -0.339.

Take `Cc1cc(C)c(OCCOCCN(C)C)c(Br)c1`: the z-score was -0.584.

Take `O=C(NCc1ccc(-c2nc3ccccc3s2)cc1)c1cc2ccccc2o1`: the z-score is -0.0663. The result for `CCCCOC(=O)n1c(=O)oc2ccccc21` reads -0.0354; that for `Cc1cccc(C(=O)Nc2ccccc2SCC2CSc3nc4ccccc4c(=O)n32)c1` (stereo not drawn), -1.1; that for `CN(C)C(=O)c1cc(S(=O)(=O)N(C)C)c(Cl)cc1N1CCCC1`, -0.247. Turning to `NC(=O)Cn1c(S(=O)(=O)Cc2ccccc2)nc2ccccc21`, the z-score is 0.584.

With `CCOC(=O)Cc1csc(NC(=S)NC(=O)c2ccc(Cl)cc2)n1`, the z-score was 2.1. `O=C(C/C=N/OCc1ccc(Cl)cc1Cl)c1ccc(Cl)cc1` registered a z-score of 0.161. The compound `Cc1onc(-c2ccccc2)c1C(=O)Nc1nc2c(s1)C(=O)CC(C)(C)C2` displayed a z-score of -0.00828. On to `CCn1c(-c2cc(-c3ccccc3OC)nc3ccccc23)n[nH]c1=S`, for which the z-score came out at 0.152.

With `Cc1ccc(C(=O)CCNc2cccc(Br)c2)o1`, the z-score was -0.445. `Cc1ccccc1OCC(=O)O/N=C(\N)Cc1ccc(Cl)cc1`: the z-score was -0.483. `C/C=C/c1ccc(OCCCNC2CCCC2)c(OC)c1` showed a z-score of 1.24.

As to `CCOC(=O)CCS(=O)(=O)c1nc(-c2ccccc2)cc(C(F)(F)F)n1`, the z-score is -0.802. In the case of `Nc1nnnn1NCc1cccc(OCc2ccccc2)c1`, the z-score is -0.851. In the case of `Cc1cc(C)c2oc(-c3ccc(C)c(NC(=S)NC(=O)c4cccs4)c3)nc2c1`, the z-score was active: 3.57. `O=C(Nc1ccccc1C(=O)OCC(=O)c1c[nH]c2ccccc12)c1ccco1`: the z-score is -0.255. The result for `COc1ccc(CNc2ccc(C(=O)O)cc2)cc1` reads 0.858. The result for `O=C(O)CCCN1C(=O)/C(=C/c2ccc(-c3nc4ccccc4s3)o2)SC1=S` reads 0.773. Compound `NC12CCc3c(no[n+]3[O-])C1(O)CC(c1ccccc1)=[N+]2[O-]` (stereo not drawn) came in with a z-score of -0.35. As for `O=c1c2cc(N3CCOCC3)ccc2[nH]c(=S)n1Cc1ccc(Cl)cc1`, the z-score was determined as 0.826.

For the compound `CC(=O)Nc1nonc1C(=O)N1CCC(C)CC1`, the z-score is -0.119. In turn, `CC(=O)SCC(C)C(=O)NCc1ccccc1` (stereo not drawn) had a z-score of 0.487. In turn, `Cc1cccc(N2CCN(S(=O)(=O)c3ccc(S(=O)(=O)N4CCCC4)cc3)CC2)c1C` gave a z-score of -0.533. In turn, `COC(=O)/C(=C/Nc1cccc2ccccc12)[N+](=O)[O-]` showed a z-score of -0.204. As to `CCN(CC)P(=O)(/C(Cl)=C\Nc1c(C)n(C)n(-c2ccccc2)c1=O)N(CC)CC`, the z-score is -0.27. As for `COCCCN=C(c1ccco1)n1c(=S)nc(-c2ccco2)n(CCCOC)c1=S`, the z-score is -0.525. The compound `COc1cc(CCC(=O)OCC(=O)Nc2c(C)cc(C)cc2C)cc(OC)c1OC` had a z-score of -0.204.

On to `COc1cc(C)c(Cl)cc1S(=O)(=O)NCc1ccco1`, for which the z-score amounted to 0.25. `CCOc1ccccc1NC(=O)C1C2C=CC(C2)C1C(=O)O` (stereo not drawn): the z-score was -0.000563. With `Cc1ccc(C)c(N2CCN(C(=O)CN(C)S(=O)(=O)c3ccc4c(c3)CCC(=O)N4)CC2)c1`, the z-score was -0.168. The compound `COCCn1c(N2CCN(c3ccc(OC)cc3)CC2)nc2c1c(=O)n(C)c(=O)n2C` yielded a z-score of -0.0614.

The compound `CCOC(=O)Cn1c(=O)n(Cc2ccco2)c(=O)c2ccc(C(=O)NCCc3ccccc3)cc21` displayed a z-score of -1.79.

`Nc1cc(N)nc(SCC(=O)NCC2CCCO2)n1` (stereo not drawn): the z-score is -0.167. Regarding `CCC(O)CNc1nc(SC)nc2sc3c(c12)CCN(C)C3` (stereo not drawn), the z-score is -0.691. Turning to `Cc1ccc(Cl)cc1N1CCN(Cc2nc3ccsc3c(=O)[nH]2)CC1`, the z-score was -0.184.

For `CCN(CC)CC(O)COc1ccc2c(c1)OCO2` (stereo not drawn), the z-score was -0.199. `CN(C)S(=O)(=O)c1ccc(C(=O)Nc2nnc(SCc3cccc(F)c3)s2)cc1` had a z-score of -0.249. Compound `O=[N+]([O-])c1ccc(/C=C/c2nc3ccc([N+](=O)[O-])cc3[nH]2)cc1` returned a z-score of -0.389. Consider `Cc1cccc(N2C(=O)CC(N3CCN(c4ccccc4)CC3)C2=O)c1` (stereo not drawn), for which the z-score is -0.369. The same measure for `Cc1ccc(NC(=O)CN(c2cc(C)cc(C)c2)S(=O)(=O)c2c(C)noc2C)nc1`: -0.225; for `CCn1cc(C(=O)OCC(=O)Nc2ccc(S(=O)(=O)N3CCCC3)cc2)c(=O)c2ccc(C)nc21`: -0.0852. The same measure for `Cc1ccc(S(=O)(=O)N2C(=O)C(c3ccccc3)SC2=Nc2ccccc2)cc1` (stereo not drawn): 0.00767; for `Cc1nc(-c2ccc3c(c2)OCO3)cs1`: 0.0239.

Turning to `Cc1ccc2c(c1)NC(=O)C(CC(=O)NC1CCCCC1C)O2` (stereo not drawn), the z-score is 0.0477.

Take `CCCOc1cc(CN2CCCCC2)cc(C(C)=O)c1`: the z-score turned out to be 0.184. Compound `COC(=O)c1ccc(NC(=O)C2C3C=CC(O3)C2C(=O)O)cc1` (stereo not drawn) came in with a z-score of -0.438. The same measure for `CCOc1cc(C)c(S(=O)(=O)N2CCCC2)cc1C`: -0.425; for `CC(=O)Nc1ccc2c(c1)n(C)c(=O)n2C`: -0.163; for `C/C(=N\NS(C)(=O)=O)c1ccc(C)cc1`: -0.0785. The compound `COc1ccc(CC(=O)NNc2ncnc3c2cnn3-c2ccc(C)cc2)cc1` displayed a z-score of -0.0179. With `CCOC(=O)CC(N)c1ccc2c(c1)OCO2` (stereo not drawn), the z-score was -0.0325.

In turn, `COc1ccc(C2OC(=O)CC2C(=O)NC(C)C)cc1` (stereo not drawn) displayed a z-score of -0.591. `CC1CCCCC1NC(=O)Cn1nnc(-c2ccc(Cl)cc2)n1` (stereo not drawn) showed a z-score of 0.119. `CCC(C)NC(=O)Cn1nc([N+](=O)[O-])c(Cl)c1C` (stereo not drawn) came in with a z-score of -0.0165. As for `Cc1ccc2c(c1)CCCN2C(=O)c1cc2ccccc2oc1=O`, the z-score turned out to be 0.189. Turning to `COc1ccc(C(=O)CSc2ccc(-c3ccccc3)nn2)cc1`, the z-score was -0.139. For the compound `CC(=O)OC(C(=O)NC1CCCCC1)c1ccc(C)cc1` (stereo not drawn), the z-score is -0.0168.

`O=C1CS/C(=C\[N+](=O)[O-])N1c1ccccc1`: the z-score was found to be 0.173. `CCn1c(SCC(=O)Nc2cc(NC(C)=O)ccc2OC)nnc1-c1ccncc1` registered a z-score of -0.137. The result for `CCNC(=O)c1sccc1-n1cccc1` reads -0.0281; that for `COCc1nnc(NC(=O)C(C)C)s1`, active: 3.48; that for `CC12c3ccccc3C(c3ccccc31)C1C(=O)N(c3cccnc3)C(=O)C12` (stereo not drawn), -0.314. `COc1ccc(-n2cnc3cc(NS(=O)(=O)c4ccccc4)ccc32)cc1` registered a z-score of -0.404. For `CCOc1ccc2nc(COC(=O)c3ccco3)c(C(C)=O)[n+]([O-])c2c1`, the z-score was found to be 0.943. The same measure for `CCOc1ccccc1C(=O)Nc1nnc(C(C)C)s1`: 0.724; for `O=C1c2ccccc2C(=O)N1CCCCn1c(=O)oc2ccccc21`: -0.258.

`O=C(Nc1ccc2c3c(cccc13)CC2)c1cccc([N+](=O)[O-])c1` gave a z-score of 0.00702. The same measure for `O=C(NCc1ccccc1Cl)c1cnccn1`: 0.0726. `CCOCc1nnc(NC(=O)c2cc(Cl)ccc2OC)s1` showed a z-score of -0.179. `Cc1csc(NC(=O)c2cccs2)n1` yielded a z-score of 0.0104. `CCCCn1c(CN2C(=O)c3ccccc3C2=O)nc2ccccc2c1=O` came in with a z-score of 0.0111. Consider `COc1cc([N+](=O)[O-])ccc1NC(=S)NCc1ccccn1`, for which the z-score was -0.161. The compound `CCC(=O)Nc1cc2c(cc1C(=O)CC)OCCO2` returned a z-score of -0.724. As to `COc1cc(C2=NOC(C(=O)N3CCCc4ccccc43)C2)cc(OC)c1OC` (stereo not drawn), the z-score was 0.0774.

As for `COc1ccc2oc(=O)c(C(=O)N3CCN(c4ccc(F)cc4)CC3)cc2c1`, the z-score was -0.61.
